# Results taken from PubChem BioAssay AID1240 (Sanford-Burnham Center for Chemical Genomics, 2008).
# “And” between values parts separate entries of the source, which are not always exact repeats. Equal values may be shown once. Screen size: about 50,000 compounds; about 800 (1.6%) showed an effect of 50% or more. This is one part of the list.
# Molecular target: Bcl-2-like protein 10 (Homo sapiens) (UniProt Q9HD36)
# Test: TR3 peptide-Bcl-B binding displacers, biochemical primary FP assay, phenotype converters (AID 1240);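 also: 0% = Bcl-B with tracer peptide and DMSO and 100% = tracer peptide lacking Bcl-B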
# Details: GST-Bcl-B / FITC-TR3 peptide fluorescence polarization; stronger effect = higher value; compound at 3.75 mg/L
# Sequence of UniProt Q9HD36 (Q9HD36 whole entry, looked up): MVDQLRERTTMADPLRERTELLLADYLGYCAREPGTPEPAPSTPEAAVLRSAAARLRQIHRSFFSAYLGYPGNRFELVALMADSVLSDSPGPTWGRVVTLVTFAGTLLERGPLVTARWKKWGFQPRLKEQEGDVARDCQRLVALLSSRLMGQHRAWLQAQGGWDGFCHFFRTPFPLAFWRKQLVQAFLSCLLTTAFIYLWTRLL
row,Compound,displacement
1,O=C(c1ccccc1Cl)N1CCN(c2c(Cl)cccc2[N+](=O)[O-])CC1,8.5%
2,O=c1[nH]c(O)c(C=NCc2ccc(Cl)c(Cl)c2)c(=O)[nH]1,3.8%
3,O=C(c1cccs1)N1CCN(C(c2ccccc2)c2ccccc2)CC1,5.1%
4,CCOC(=O)/C(C#N)=C\c1c(C)c(C)c(/C=C(/C#N)C(=O)OCC)c(C)c1C,7.7%
5,CC(=O)Oc1cccc(C(=O)Nc2ccc3c(c2)C(=O)N(c2ccccc2)C3=O)c1,-15.3%
6,COc1ccc(C2CC(C(F)(F)F)n3ncc(C(=O)NC(C)(C)C)c3N2)cc1 (stereo not given),3.6%
7,COc1ccc(N2C(=O)NC(=O)/C(=C\c3ccoc3)C2=O)cc1,-15.8%
8,Cc1cccc2c(C(=O)O)cc(C(=O)O)nc12,2.2%
9,COc1ccc(-c2cc(C(F)(F)F)n3ncnc3n2)cc1,-6.6%
10,N/C(=N\S(=O)(=O)c1ccccc1)c1ccccc1,11.7% and 9.4%
11,COC(=O)c1c(NC(=O)COc2ccc(C)cc2C)sc2c1CCC(C)C2 (stereo not given),-5.6%
12,Cc1cccc(N2C(=O)NC(=O)/C(=C/c3ccc(-c4ccc(C(=O)O)cc4)o3)C2=O)c1,-58.8%
13,O=C(Nc1cccc(-c2cn3ccccc3n2)c1)c1ccc(Br)cc1,4.7%
14,O=C1NN(c2ccccc2)C(=O)/C1=C/c1ccccc1OCc1ccccc1F,11.4%
15,Cn1c(=O)c(C(=O)NC2CCCCC2)c(O)c2ccccc21,2.3%
16,O=C(CCN1C(=O)/C(=C/c2cccs2)SC1=S)Nc1ccccn1,126%
17,Cc1onc(-c2ccccc2)c1C(=O)Nc1ccccc1Oc1ccccc1,10.9%
18,O=C1NC(=Nc2ccc(O)cc2)S/C1=C/c1ccco1,33.9%
19,O=C(N/N=C\c1cccc([N+](=O)[O-])c1)c1cncc(Br)c1,5.3%
20,O=C(Nc1ccc(O)c(-c2nc3ccccc3o2)c1)c1cccnc1,-0.4%
21,OC(CN1CCNCC1)Cn1c2ccccc2c2ccccc21 (stereo not given),-7.2%
22,CCCCOC(=O)c1ccc(NC(=O)c2cccc(Cl)c2Cl)cc1,10.6%
23,CC1(C)OC2C(C(=O)O)O[C@@H](n3cnc4c(N)ncnc43)C2O1 (stereo not given in full),-5.9%
24,O=[N+]([O-])c1ccc(/C(=C/C=Nc2ccccc2)Nc2ccccc2)cc1,9.8%
25,O=C1C(=O)N(Cc2ccccc2)C(c2cccc(F)c2)/C1=C(/O)c1ccccc1 (stereo not given),6.8%
26,COc1cc(/C=N\NC(=O)c2ccc([N+](=O)[O-])cc2)ccc1OC(=O)c1cccc2ccccc12,13.7%
27,CC(=O)c1ccc(NC(=S)NC(=O)c2cccnc2)cc1,9%

row,Compound,displacement
1,Cc1ccc(C2(C)N(O)C(C)C(c3ccccc3)=[N+]2[O-])o1 (stereo not given),1.8%
2,Cc1csc(-c2cc3ccc(OC/C=C/c4ccccc4)cc3oc2=O)n1,38.3%
3,Cc1ccc(-c2nc3ccccc3o2)cc1NC(=S)NC(=O)c1ccc(Cl)cc1,1.4%
4,COc1ccc(C(=O)N2CCN(Cc3ccc(C(F)(F)F)cc3)CC2)cc1OC,-12.3%
5,CC(C)c1ccc(N2C(=O)NC(=O)/C(=C/c3ccc(N(C)C)cc3)C2=O)cc1,41.3%
6,CC(N=Cc1cc([N+](=O)[O-])cc(Br)c1O)C12CC3CC(CC(C3)C1)C2 (stereo not given),9.3%
7,O=C(Nc1ccccc1C(=O)O)c1cccc(NC(=O)C(c2ccccc2)c2ccccc2)c1,4.2%
8,CCOc1ccc(S(=O)(=O)N(CC(=O)Nc2ccc(C)cc2C)c2ccc(C)cc2)cc1,14.1%
9,COc1ccc(CC(=O)N2CCOCC2)cc1OC,-4.2%
10,O=c1/c(=C/c2ccccc2OS(=O)(=O)c2ccccc2[N+](=O)[O-])sc2nc3ccccc3n12,13.5%
11,CCCNC(=O)C12CC3CCC(CC(C3)C1)C2,6.5%
12,c1ccc(CN2CCC(N3CCN(Cc4ccccc4)CC3)CC2)cc1,7.4%
13,O=S(=O)(NCCOc1ccccc1Cl)c1ccc2ccccc2c1,13.1%
14,Nc1ncc(Cc2ccc(F)cc2)s1,-2.5%
15,CCCCOC(=O)c1cccc(NC(=O)COc2ccc3c(C)cc(=O)oc3c2)c1,-41.8%
16,COC(=O)C1=C(C)N(C)C(C)=C(C(=O)OC)C1c1cc(Br)c(OC)c(OC)c1,-3.3%
17,CCCOc1ccccc1C1NC(=O)c2c(sc3c2CCCC3)N1 (stereo not given),17.9%
18,COC(=O)CN(c1ccccc1Cl)S(C)(=O)=O,2%
19,N#CC1=C(N)Oc2cc(N)ccc2C1C1CCCCC1 (stereo not given),-6%
20,COC(=O)c1ccc(C(=O)OC)c(NC(=O)c2c(OC)cccc2OC)c1,15.9%
21,CC(C)(C)c1ccccc1OCCCCCCN1CCOCC1,5.8%
22,O=C(Nc1ccccc1[N+](=O)[O-])c1c(-c2cnc3ccccc3c2C(=O)Nc2ccccc2[N+](=O)[O-])cnc2ccccc12,-1.5%
23,Cc1cc(C)c2oc(-c3ccc(NC(=O)COc4ccccc4[N+](=O)[O-])cc3)nc2c1,89.3%
24,O=C(NC(NC(=S)Nc1ccc(Br)cc1)C(Cl)(Cl)Cl)c1ccccc1F (stereo not given),-1.1%
25,COc1ccc(N(CC(=O)Nc2ccc(C)cc2C)S(=O)(=O)c2ccc(C)cc2)cc1,4.5%
26,COc1ccc(-n2nc3cc(C)c(NC(=O)c4cc(Cl)ccc4OC)cc3n2)cc1,-5.3%
27,CC(C)C(=O)Nc1cccc2c1C(=O)N(c1ccccc1)C2=O,5.7%

row,Compound,displacement
1,O=C1Nc2ccccc2/C1=N/N1C(=O)CSC1=S,26.4%
2,COc1ccc(/C=C(\NC(=O)c2ccccc2)C(=O)Nc2ccc(Cl)cc2)cc1OC,1.2%
3,CCOc1cc(/C=C2\C(=O)NC(=S)N(c3ccc(Br)cc3)C2=O)ccc1O,6.3%
4,COc1ccc([N+](=O)[O-])cc1NC(=S)Nc1ccccc1,-5.5%
5,CC1=C(C(=O)Nc2ccccc2Cl)C(c2cccc(Br)c2)NC(=O)N1 (stereo not given),3.9%
6,CC1(C)CC(=O)CC(=Nc2ccccc2N)C1,5.8%
7,Cc1ccccc1NC(=O)c1ccc2ccccc2c1,-2.7%
8,O=C1C(=O)N(C2CCCCC2)C(=O)N1c1ccc(Cl)cc1,1.1%
9,COc1ccc(CCN(C(=S)Nc2ccccc2)C2CC(=O)N(c3ccccc3)C2=O)cc1 (stereo not given),-5.8%
10,CCOC(=O)C1=C(C)N=C2SCC(=O)N2C1c1cc(OC)ccc1OC (stereo not given),0.9%
11,COc1cccc(OCCCCCCN2CCCC2)c1,8.5%
12,NC(=O)c1c(NC(=S)NC(=O)c2ccccc2Cl)sc2c1CCC2,13.7%
13,NC(=O)NC1CCCc2c1[nH]c1ccc(Cl)cc21 (stereo not given),-10.7%
14,c1cc2c(c(NCc3ccncc3)c1)CCCC2,-0.1%
15,Cc1ccc2[nH]c3nc(N/N=C/c4cc(Br)c(O)c(Br)c4)nnc3c2c1,1.3%
16,COc1cccc(OCCOc2ccc(/C=C3\C(=O)NN(c4ccccc4)C3=O)cc2)c1,1.9%
17,CCC(C)c1ccc(NS(=O)(=O)c2ccc(NC(C)=O)cc2)cc1 (stereo not given),12.3%
18,CN(c1ccccc1C(=O)O)C1SC(=O)N(c2ccccc2)C1=O (stereo not given),138%
19,CC(=O)Nc1nonc1-c1nc2ccccc2n1Cc1nnc(C)o1,30.5%
20,O=C(N/N=C/c1ccccn1)c1[nH]c2ccc([N+](=O)[O-])cc2c1-c1ccccc1,-15.3%
21,CCCC1C(c2ccccc2)NC(c2ccccc2)C(C)C1(C)O (stereo not given),-6.6%
22,COc1cc(OC)cc(C(=O)Nc2cccc(-c3nc4cc(C)cc(C)c4o3)c2C)c1,58.7%
23,N#CC(C(N)=O)C(SCc1ccccc1)c1ccc(Br)cc1 (stereo not given),10.5%
24,O=C(CSc1cccc2cccnc12)Nc1nnc(-c2ccccc2)s1,8.7%
25,O=C(/C=C/c1ccc(F)cc1)Nc1ccccc1[N+](=O)[O-],12.8%
26,COc1cc(OC)c(OC)cc1/C=C/c1cc(C(F)(F)F)[nH]c(=O)n1,7.5%
27,O=C1NC(=S)S/C1=C\c1cccc(OS(=O)(=O)c2ccc([N+](=O)[O-])cc2)c1,-32.2%

row,Compound,displacement
1,Cc1ccc(NC(=O)c2ccc3c(c2)C(=O)N(CC2CCCO2)C3=O)cc1C (stereo not given),8.5%
2,CCOc1ccc(N(CC(=O)N2CCOCC2)S(C)(=O)=O)cc1,11.1%
3,Cc1cc(Br)ccc1S(=O)(=O)NCc1ccccc1,3.9%
4,CC(=O)NS(=O)(=O)c1ccc(NS(=O)(=O)Cc2ccccc2)cc1,-7.9%
5,CCc1ccc(CN2CCN(C(=O)c3cccc(OC)c3)CC2)cc1,-17%
6,CCC(C)NC(=O)c1ccc(CN(c2ccc(C)c(C)c2)S(C)(=O)=O)cc1 (stereo not given),-6%
7,O=C(Nc1ccccc1[N+](=O)[O-])C12CC3CC(CC(C3)C1)C2,-11%
8,COc1cccc(CN2CCN(S(C)(=O)=O)CC2)c1OC,11%
9,O=C(/C=C/c1ccc([N+](=O)[O-])cc1)C1C(=O)c2ccccc2C1=O,-6.3%
10,Cc1cc(=O)[nH]c(Nc2nc(C)c3cccc(C)c3n2)n1,1.9%
11,COc1cccc(C2C(C(=O)Nc3ccccc3)=C(C)N=c3s/c(=C\c4ccc5c(c4)OCO5)c(=O)n32)c1 (stereo not given),12.1%
12,CC(=O)N1c2ccccc2C(N(C(=O)COc2ccc(Cl)cc2Cl)c2ccccc2)CC1C (stereo not given),-0.9%
13,C(=N\n1cnnc1)/c1cc2ccccc2[nH]1,11.1%
14,COc1cc(C(=O)NCCc2ccc(Cl)cc2)cc(OC)c1OC,-6.6%
15,COC(=O)c1ccccc1NC(=O)c1cc(-c2ccc(OC)cc2OC)nc2ccccc12,-3%
16,CCCCOC(=O)COc1ccc(S(=O)(=O)c2ccc(OCC(=O)OCCCC)cc2)cc1,14.4%
17,Cc1ccc(-c2cc(-c3ccccc3O)nc(N/N=C/c3cccnc3)n2)cc1,27.3%
18,CCOc1cccc(C=Nc2cc(CC)ccc2O)c1O,2.8%
19,O=C1CCC(C(=O)c2ccccc2)C(O)=C1C=NCCO (stereo not given),7.2%
20,COc1ccc(C2=C/C(=C/c3ccc(-c4cccc([N+](=O)[O-])c4)o3)C(=O)O2)cc1,7.4%
21,Cc1ccccc1NC(=O)c1c(NC(=O)c2cccc(Cl)c2)sc2c1CCCC2,0.4%
22,Cn1c(=O)c([N+](=O)[O-])c(N2CCN(C(=O)c3ccccc3)CC2)c2ccccc21,7.2%
23,O=C(O)c1ccc(-c2ccc(/C=C3\SC(=S)N(Cc4ccccc4)C3=O)o2)cc1,-31.9%
24,O=C(c1ccccc1Br)N(C1CCCCC1)C1CCCCC1,1.4%
